One test deals with HSkMC. Kind of test: cytotoxicity call (relative viability < 0.9). The conditions noted are these: 10 µM.
Another test has as its system HepG2. Kind of test: cytotoxicity call (relative viability < 0.9). The conditions noted are these: 10 µM.
The subject of the next test is S. aureus RN4220. Kind of test: growth inhibition call (relative growth <= 0.2). Particulars: 50 µM.

Some of the results follow.

With `CCOC(=O)NNc1nncc2ccccc12.Cl`, the cytotoxicity call in the test on HSkMC and with HepG2 was “inactive” throughout. For the same compound, in the test with S. aureus RN4220, the growth inhibition call is “inactive”.

Regarding `O=C1O[C@@H](c2ccccc2)[C@@H](c2ccccc2)N2[C@@H](c3ccc(OCCO)cc3)[C@]3(C(=O)Nc4ccccc43)[C@@H](C(=O)Nc3nc4ccccc4s3)[C@H]12`, the cytotoxicity call in the test with HSkMC and in the test with HepG2 was “inactive” throughout. Moreover, the growth inhibition call in the test with S. aureus RN4220 is “inactive”.

`C[C@H]1CN([C@@H](C)CO)C(=O)c2cc(C#Cc3cccnc3)cnc2O[C@H]1CN(C)S(=O)(=O)c1ccccc1F`: the cytotoxicity call with HSkMC and in the test on HepG2 was “inactive” each time. Moreover, the growth inhibition call with S. aureus RN4220 is “inactive”.

Regarding `C[C@@H]1CN([C@@H](C)CO)C(=O)Cc2cc(NC(=O)Cn3cnnn3)ccc2O[C@@H]1CN(C)C(=O)NC1CCCCC1`, the cytotoxicity call with HSkMC and in the test with HepG2 was “inactive” in each case. Besides, the growth inhibition call with S. aureus RN4220 is “inactive”.

`C[C@@H]1CCCCO[C@@H](CN(C)C(=O)Nc2ccc(F)cc2)[C@H](C)CN([C@@H](C)CO)C(=O)c2cc(NC(=O)CCC(F)(F)F)ccc2O1`: the cytotoxicity call in the test on HSkMC and with HepG2 was “inactive” throughout. In addition, in the test with S. aureus RN4220, the growth inhibition call is “inactive”.

With `COc1ccc(CN(C)C[C@H]2Oc3ccc(NC(=O)C4CC4)cc3CC(=O)N([C@@H](C)CO)C[C@H]2C)cc1`, the cytotoxicity call in the test on HSkMC and in the test on HepG2 was “inactive” each time. For the same compound, the growth inhibition call with S. aureus RN4220 is “inactive”.

In the case of `NCc1cn(Cc2ccc(Cl)c(Cl)c2)cn1`, the cytotoxicity call with HSkMC and in the test on HepG2 was “inactive” in each case. In addition, the growth inhibition call with S. aureus RN4220 was “inactive”.

In the case of `Oc1ccc(OCc2ccccc2)cc1`, the cytotoxicity call in the test on HSkMC (human skeletal muscle cells) and in the test on HepG2 was “inactive” throughout. Besides, the growth inhibition call in the test with S. aureus RN4220 was “inactive”.

In the case of `COc1ccc(S(=O)(=O)N(C)C[C@H]2Oc3ccc(NS(=O)(=O)c4ccccc4)cc3C(=O)N([C@H](C)CO)C[C@H]2C)cc1`, the cytotoxicity call with HSkMC and in the test with HepG2 was “inactive” throughout. Also, the growth inhibition call with S. aureus RN4220 is “inactive”.

As to `COc1ccc(S(=O)(=O)Nc2ccc3c(c2)CC(=O)N([C@@H](C)CO)C[C@H](C)[C@H](CN(C)Cc2ccc(Oc4ccccc4)cc2)O3)cc1`, in the test with HSkMC, the cytotoxicity call was “active”. The cytotoxicity call in the test on HepG2 was “inactive”. Further, the growth inhibition call in the test on S. aureus RN4220 was “inactive”.

The values are drawn from the antibiotic and cytotoxicity screens of Wong et al. (2023).
